Source: PubChem BioAssay AID624417 (National Center for Advancing Translational Sciences (NCATS), 2012)
Among all 410,000 compounds or so, about 6,400 (1.6%) were called active. Inconclusive means that the source gave no clear call. Such entries were picked first, then a sample of the others. Calls come from the whole dose curve; as a rule, active = well fitted inhibition curve with a large enough effect; inconclusive = small, poorly fitted or top-dose-only effect; inactive = no such curve, though single readings can be large or run the other way. No potency is given beside an inconclusive call; the fits are too rough.

These compounds were tested against Glucagon-like peptide 1 receptor (Homo sapiens) (UniProt P43220) (assay: qHTS of GLP-1 Receptor Inverse Agonists (Inhibition Mode)). Details: HEK293 GLP-1R CRE-luciferase, luminescence, 24 h, GLP-1R form is constitutively active; series mostly up to 38.3 µM.
Sequence of UniProt P43220 (P43220 whole entry, looked up): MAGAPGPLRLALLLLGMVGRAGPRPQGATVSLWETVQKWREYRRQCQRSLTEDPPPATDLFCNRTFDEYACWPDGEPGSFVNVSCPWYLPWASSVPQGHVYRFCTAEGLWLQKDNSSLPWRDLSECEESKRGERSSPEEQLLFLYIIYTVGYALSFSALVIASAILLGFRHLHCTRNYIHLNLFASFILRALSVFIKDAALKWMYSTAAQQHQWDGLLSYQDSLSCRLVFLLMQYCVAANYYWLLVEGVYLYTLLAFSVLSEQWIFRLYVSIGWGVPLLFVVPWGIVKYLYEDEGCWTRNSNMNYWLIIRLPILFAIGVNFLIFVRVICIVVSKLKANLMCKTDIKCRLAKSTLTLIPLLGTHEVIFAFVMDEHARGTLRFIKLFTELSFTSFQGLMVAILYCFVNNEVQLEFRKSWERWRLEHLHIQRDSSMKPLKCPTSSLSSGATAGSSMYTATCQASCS
Method in brief: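 Constitutively active GLP-1R drives a cAMP-responsive luciferase in stably transfected HEK293 cells; test compounds are added after overnight (12 h) attachment and left 24 hr, and signal loss in luminescence marks inhibition.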
Note: nearly all actives have a fitted effect of over 55% in size.
Potency is the fitted concentration of half-maximal effect; tags give direction and shape of the fitted curve.

| SMILES | Potency |
| --- | --- |
| COc1cc(OC)cc(-c2nc3nc(C)c(CCC(=O)Nc4cc(C)cc(C)c4)c(C)n3n2)c1 | inactive |
| CC(NC(=O)c1ccc([N+](=O)[O-])cc1Cl)C1CC2CCC1C2 (stereo unspecified) | inconclusive [inhibitor, single point] |
| CC(C)Cn1cc(NC(=O)N2CCN(c3ccc(F)cc3)CC2)c2ccccc2c1=O | inactive |
| CC(=O)c1ccc(NC(=O)CSC2=Nc3ccccc3N=C(c3ccc(F)cc3)C2)cc1 | inactive |
| CC1=CC(C)(C)N(C(=O)CNC2CCCC2)c2cc(C)ccc21 | inconclusive [inhibitor, single point] |
| Cc1cc(Br)cn2c(Cc3cccc(Cl)c3)c(-c3cccc(Cl)c3)nc12 | active: 10 µM |
| CCCN1C(=O)c2cc(C(=O)Nc3cccc(C(C)=O)c3)ccc2C1Nc1cccc(C(C)=O)c1 (stereo unspecified) | inconclusive [inhibitor, single point] |
| CC[C@@]12C(=O)N(c3cccc(Br)c3)C(=O)N1[C@H](c1cccc(C)c1)[C@@H]1C(=O)N(Cc3ccccc3)C(=O)[C@@H]12 | inconclusive [inhibitor, partial curve, poor fit] |
| Cc1ccc(-c2cc(C(=O)Nc3nccs3)c3ccccc3n2)c(C)c1 | inconclusive [inhibitor, partial curve, poor fit] |
| O=C(NC1CCCCC1)C(c1cccs1)N(C(=O)c1ccco1)c1ccc2c(c1)OCCO2 (stereo unspecified) | inconclusive [inhibitor, single point] |
| OCCC1CN(Cc2cccc(OC3CCCC3)c2)CCN1Cc1ccsc1 (stereo unspecified) | inconclusive [inhibitor, partial curve, poor fit] |
| Cc1occc1C(=O)O/N=C(\N)c1ccccc1 | inconclusive [inhibitor, partial curve, poor fit] |
| Cc1ccc(-n2nc3c(=O)n(C(C)C(=O)NCc4ccc(OC(C)C)cc4)nc(C)c3c2C)cc1 (stereo unspecified) | inconclusive [inhibitor, partial curve] |
| OCCCn1c(C(CO)Nc2nc(-c3ccc(Cl)cc3)cs2)nc2ccccc21 (stereo unspecified) | inconclusive [inhibitor, single point] |
| O=C(N1CCN(Cc2ccc3c(c2)OCO3)CC1)C12CC3CC(CC(C3)C1)C2 | inconclusive [inhibitor, partial curve, poor fit] |
| Cc1ccc(S(=O)(=O)N2CCN(C)CC2)cc1[N+](=O)[O-] | inactive |
| CC1Oc2ccccc2N(Cc2ccc(F)cc2)C1=O (stereo unspecified) | inconclusive [inhibitor, partial curve, poor fit] |
| COC(=O)c1ccc(COc2cccn3c(N(C)C(=O)CCC4CCCC4)c(C)nc23)cc1 | inconclusive [inhibitor, single point] |
| N#Cc1ccccc1S(=O)(=O)N1CCN(CC(=O)NCC2(N3CCOCC3)CCCCC2)CC1 | inactive |
| COc1ccc(-c2noc(CSc3ccccc3)n2)cc1OC | inconclusive [inhibitor, single point] |
| Cc1cc(C)cc(-n2c(SCC(=O)Nc3ccccc3)nc3c(oc4ccccc43)c2=O)c1 | inactive |

| SMILES | Potency |
| --- | --- |
| CC(CCc1ccccc1)NCc1ccc(Cl)cc1Cl (stereo unspecified) | inconclusive [inhibitor, single point] |
| COc1ccc(N(CC(=O)N/N=C/c2ccco2)S(=O)(=O)c2ccccc2)cc1Cl | inconclusive [inhibitor, single point] |
| Cc1cccc(C)c1N1CCN(C(c2cc3ccccc3o2)c2nnnn2C(C)(C)C)CC1 (stereo unspecified) | inconclusive [inhibitor, partial curve, poor fit] |
| Cc1[nH]c2ccc(C(=O)OC(C)C(=O)NC3CCCCC3C)cc2c1C (stereo unspecified) | inconclusive [inhibitor, single point] |
| CC(=O)[C@@]1(O)C(C)CC2C3C=C(C)C4=Cc5c(cnn5-c5ccccc5)C[C@]4(C)C3C(O)C[C@@]21C (stereo partly specified) | inconclusive [inhibitor, full curve, poor fit] |
| Cc1ccc(Nc2nc(N3CCOCC3)nc(N3CCOCC3)n2)cc1C | inconclusive [inhibitor, full curve, poor fit] |
| Cc1cccc(-c2nc(CC(=O)Nc3cccc(S(=O)(=O)NC4=NCCC4)c3)cs2)c1 | inconclusive [inhibitor, partial curve] |
| COC1=CC(=O)c2ccccc2C1=O | inconclusive [inhibitor, single point] |
| C=CCN(CC=C)C(=O)C1CCN(Cc2ccc(OCc3ccccc3)cc2)CC1 | inconclusive [inhibitor, partial curve, poor fit] |
| CCN1C(=O)C(CC(=O)Nc2ccccc2Cl)N(NC(=O)c2cccc(F)c2)C1=S (stereo unspecified) | inconclusive [inhibitor, partial curve, poor fit] |
| COc1ccc(CCNC(=O)CCCc2ccccc2)cc1 | inconclusive [inhibitor, single point] |
| CN(CC(=O)Nc1cccc(F)c1)C(=O)c1cccc(-n2cccc2)c1 | inconclusive [inhibitor, partial curve, poor fit] |
| COC(=O)c1ccc(/C=N/NC(=O)c2cccc(F)c2)cc1 | inactive |
| CCN(Cc1nc2cc(Cl)ccc2c(=O)[nH]1)C(=O)c1cc(C2CC2)nn1-c1ccccc1 | inconclusive [inhibitor, single point] |
| c1ccc(CCNc2ncnc3c2cnn3-c2ccccc2)cc1 | inconclusive [inhibitor, single point] |
| COc1ccc(-n2c(=S)[nH]c3cc(C(=O)N4CCN(c5ccccc5)CC4)ccc3c2=O)cc1 | inactive |
| Cc1ccc(C)c(-c2nn(-c3cc(N4CCN(CCO)CC4)ccc3[N+](=O)[O-])c(=O)c3ccccc23)c1 | inconclusive [inhibitor, partial curve, poor fit] |
| CCC(C)NCCCOc1cc(Cl)ccc1Cl (stereo unspecified) | inconclusive [inhibitor, partial curve] |
| Cc1ccc(S(=O)(=O)N2CCN(C(=O)c3cccs3)CC2)c(C)c1 | inconclusive [inhibitor, single point] |
| C[C@H](CO)N1C[C@H](C)[C@@H](CN(C)Cc2ccc(-c3ccccc3)cc2)Oc2c(NS(=O)(=O)c3ccccc3)cccc2C1=O | inconclusive [inhibitor, single point] |
| c1cncc(N=c2scc(-c3cccc4ccccc34)n2CCCn2ccnc2)c1 | inconclusive [inhibitor, partial curve, poor fit] |

| SMILES | Potency |
| --- | --- |
| CC(C)(C)c1ccc(C(=O)NCC(=O)OCc2cc(=O)n3nc(C4CC4)sc3n2)cc1 | inactive |
| Cc1cc(F)ccc1S(=O)(=O)NCC1CC2CCC1C2 (stereo unspecified) | inconclusive [inhibitor, partial curve, poor fit] |
| O=c1c2ccccc2nc(N/N=C/c2c(O)ccc3ccccc23)n1O | inconclusive [inhibitor, full curve, poor fit] |
| Cc1ccc(C)c(NC(=S)N2CCN(Cc3ccccc3)CC2)c1 | inconclusive [inhibitor, full curve] |
| C[C@@H]1CCC(=O)N(C[C@@H](C)CSc2ccccc2)CC1 | inconclusive [inhibitor, partial curve, poor fit] |
| CC1Sc2ccc(C(=O)OCc3ccccc3Cl)cc2NC1=O (stereo unspecified) | inactive |
| CC(C)C[C@H]1CN=C(Nc2ccccc2)N1CC1CCC(C)CC1 (stereo partly specified) | inconclusive [inhibitor, partial curve, poor fit] |
| Cc1ccc(CNC(=O)C(Cc2ccccc2)NS(=O)(=O)c2ccc(Br)s2)cc1 (stereo unspecified) | active: 10 µM |
| CCc1ccc(C(=O)CN2C(=O)NC(C)(CCc3ccccc3)C2=O)cc1 (stereo unspecified) | inconclusive [inhibitor, partial curve, poor fit] |
| CC(C)NC(=O)c1onc(CSc2ccc(Cl)cc2)c1C(=O)NC(C)C | inconclusive [inhibitor, partial curve, poor fit] |
| Cc1ccc(-c2cnc(C3CC3)o2)cc1S(=O)(=O)Nc1cccc(C)c1C | inactive |
| COCCNc1nnc(SC(C)C(=O)Nc2ccc(-c3nc4ccc(C)cc4s3)cc2)s1 (stereo unspecified) | inconclusive [inhibitor, single point] |
| COc1ccc2sc(-c3ccccc3OC)c(-c3ccc(OCCN(C)C)cc3)c2c1 | inconclusive [inhibitor, single point] |
| Cc1cccc(C)c1NC(=O)C(c1ccccc1F)n1c(=O)c(-c2cc3ccccc3[nH]2)nc2ccccc21 (stereo unspecified) | inconclusive [inhibitor, partial curve, poor fit] |
| O=C(/C=C/c1ccccc1)c1cc(Br)ccc(=O)c1O | inconclusive [inhibitor, single point] |
| c1ccc(CNc2ccc3ccccc3n2)nc1 | inactive |
| CCCCN(CCCC)C(=S)NC(=O)c1ccccc1Cl | inconclusive [inhibitor, partial curve, poor fit] |
| COc1ccc2[nH]c3c(c2c1)CCN(C(=O)CCC1CCCC1)C3c1ccc(F)cc1 (stereo unspecified) | inconclusive [inhibitor, full curve, poor fit] |
| COc1ccc(C(=O)N2CCN(S(=O)(=O)c3ccc(Br)cc3)CC2)cc1 | inconclusive [inhibitor, partial curve, poor fit] |
